Results on 126 molecules are retold here after article PMC9574860, “Chemical Toolkit for PARK7: Potent, Selective, and High-Throughput” (Journal of Medicinal Chemistry, 2022).

Among all 7,900 compounds or so, about 400 (5.1%) showed an effect of 50% or more. The list shows a part of the results.

In this test the target is Parkinson's disease protein 7 (PARK7/DJ1) (human, UniProt Q99497). Description: primary screen, percent inhibition; read as competition with a fluorescent probe by fluorescence polarization; higher = more effect of the substance. The conditions noted are these: 100 µM. The gist of the method: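 Covalent fragments at 100 μM final were incubated 2 h with 0.2 μM PARK7, then 20 nM probe JYQ-107 added for a further 2 h. Fluorescence polarization read at 480/520 nm; relative FP loss versus reference controls gave remaining enzyme activity.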
Parkinson's disease protein 7 (PARK7/DJ1), sequence (Q99497 whole entry, looked up, the tested form may be a part): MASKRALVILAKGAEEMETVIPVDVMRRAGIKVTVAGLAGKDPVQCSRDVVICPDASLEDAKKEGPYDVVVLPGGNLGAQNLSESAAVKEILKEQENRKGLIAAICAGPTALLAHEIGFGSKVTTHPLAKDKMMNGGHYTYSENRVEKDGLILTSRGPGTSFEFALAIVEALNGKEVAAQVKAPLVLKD
On to `CC1(C)OB(c2cccc(O)c2F)OC1(C)C`, for which the Inhibition % was determined as 14.3%.
On to `C=CC(=O)N1CC(C)(C)OC[C@@H]1C`, for which the Inhibition % worked out at 11.5%.
Then `Cc1ccc(CNC(=O)n2ccnc2)cc1`, with 104%.
For `c1cc2c(cc1OCC1CO1)OCO2` (stereo not drawn), the Inhibition % is listed as 6.5%.
`CC1(C)OB(C2CCCNCC2)OC1(C)C.Cl` (stereo not drawn): the Inhibition % turned out to be 5.32%.
Turning to `Cc1cc(Br)ccc1NC(=O)CNC(=O)CCl`, the Inhibition % is 7.91%.
For `N#Cc1cc(N2CCCCC2)ccn1`, the Inhibition % is reported as -2.78%.
As to `O=C(CCl)Nc1ccccc1C(=O)NC1CCCC1`, the Inhibition % is 13.6%.
With `COCC(C(N)=O)n1c(S)nc2ccccc2c1=O` (stereo not drawn) the figure was 8.44%; with `OB(O)C1CCN(Cc2cc3n(n2)CCC3)C1` (stereo not drawn), 7.79%.
As for `Cc1cc(C)n(CC2CN(C3CCOC3=O)CCO2)n1` (stereo not drawn), the Inhibition % is given as 6.77%.
As to `COc1cc(C=C(C#N)C(=O)NC2CC2)ccc1O`, the Inhibition % turned out to be 24.5%.
With `Oc1cc(C(F)F)nc(S)n1` the figure was 4.43%; with `O=C(CN1CCSC1=O)Nc1ccccc1Cl`, 8.88%.
Take `C=CC(=O)N1CCCC(CN2CCCN(C(C)=O)CC2)C1` (stereo not drawn): the Inhibition % turned out to be 24.1%.
In the case of `C=CC(=O)N(C)C1CCCCC1C` (stereo not drawn), the Inhibition % is listed as 1.91%.
For `Cc1ccc(C=C(C#N)C(N)=O)cc1`, the Inhibition % is listed as 6.68%.
`C=CC(=O)Nc1cccc(C(=O)O)c1`: the Inhibition % is given as 4.88%.
`O=C(CCl)Nc1ccc(Cl)cc1F`: the Inhibition % worked out at 49.7%.
On to `Cc1ccc(C=CS(=O)(=O)NCC(=O)O)cc1`, for which the Inhibition % was determined as 81.7%.
Consider `C=CC(=O)NC1CC(=O)N(C2CC2c2ccccc2)C1` (stereo not drawn), for which the Inhibition % was 9.29%.
As to `N#Cc1ncn(-c2ccccc2N)n1`, the Inhibition % is reported as 7.7%.
On to `Cl.O=C(CCl)Nc1cccnn1`, for which the Inhibition % was 26.1%.
On to `Cc1ccc(C=CS(=O)(=O)Nc2cnn(CCO)c2)cc1`, for which the Inhibition % is listed as 14.7%.
With `O=C(CCl)NC1CCN(C(=O)C2CCCCC2)CC1`, the Inhibition % was determined as 8.22%.
Consider `Cc1nc(CCCl)cs1`, for which the Inhibition % is 0.448%.
Turning to `Cc1nnc(NC(=O)CCl)s1`, the Inhibition % was found to be 2.75%.
On to `CC(=O)SCCc1csc(-c2ccccn2)n1`, for which the Inhibition % is recorded as 9.81%.
For `CC(C)OC1CCC(NC(=O)c2cccnc2S)CC1` (stereo not drawn), the Inhibition % was determined as 3.15%.
As to `C=CC(=O)Nc1ccc2c(cnn2C(F)F)c1`, the Inhibition % is 6.45%.
With `CC1(C)OB(c2ccccc2CC(F)(F)F)OC1(C)C` the figure was 7.09%.
With `COc1ccccc1CCNC(=O)CCl`, the Inhibition % came out at 15.8%.
Turning to `CCOc1cc(C)c(S(=O)(=O)n2cnc(C)c2)cc1C`, the Inhibition % is given as 8.85%.
`C=CC(=O)NC1CCOC(c2cccs2)C1` (stereo not drawn): the Inhibition % stood at 6.75%.
For `C=CC(=O)NCc1cc(C(F)(F)F)on1`, the Inhibition % was -2.22%.
For `O=C(CCl)Nc1cc2c(cc1Cl)OCCCO2`, the Inhibition % came out at 20.3%.
Take `CC1CN(c2ccc(CNC(=O)CCl)cc2F)CC(C)O1` (stereo not drawn): the Inhibition % is listed as 11.7%.
Regarding `COc1ccc(CNC(=O)C(C#N)=CN(C)C)cc1`, the Inhibition % is 9.07%.
On to `COc1ccc(F)cc1C1CO1` (stereo not drawn), for which the Inhibition % is 4.81%.
With `Cc1cc(C(F)(F)F)c(C#N)c(S)n1` the figure was -3.74%; with `CCc1nc(C)cn1S(=O)(=O)c1ccc(Cl)c(OC)c1`, 29.1%; with `Cc1n[nH]c(C)c1C=C(C#N)C(=O)N1CCCC1`, 6.67%.
For the molecule `CCN1CCCN(c2ccc(C#N)nc2)CC1`, the Inhibition % is listed as 12.1%.
`Cl.O=S(=O)(F)CCNc1ccc(F)cc1`: the Inhibition % is 36.8%.
With `C=CC(=O)N1CCOC(c2ccc(OC(F)F)cc2)C1` (stereo not drawn) the figure was 4.4%; with `CN(c1ccccc1)S(=O)(=O)C=Cc1ccccc1`, 4.34%; with `O=S(=O)(F)c1ccc(S(=O)(=O)NC[C@H]2C[C@@H](O)C2)cc1`, 15.3%.
For `Cc1cc(Cl)ccc1NC(=O)CN1CCSC1=O`, the Inhibition % is 0.897%.
For `N#Cc1ncn(C[C@H](O)c2ccc(F)cc2)n1`, the Inhibition % came to 2.55%.
For `CC(=O)c1ccccc1NC(=O)CCl`, the Inhibition % came to 19%.
For `CC1(C)CCCN1S(=O)(=O)CCC1CCOC1=O` (stereo not drawn), the Inhibition % came out at 11.9%.
For the molecule `O=C(CCl)N(Cc1ccccc1F)C1CC1`, the Inhibition % is 16.9%.
As for `CCOC(=O)c1ccccc1NC(=O)CCl`, the Inhibition % turned out to be 7.46%.
In the case of `CCOc1ccc(Nc2oc(CC)nc2C#N)cc1`, the Inhibition % is on record as 9.73%.
Then `O=C(CCl)NCc1ccc(N2CCOCC2)nc1`, with 15.2%; and `CC1(C)CN(C(=O)CCl)CCO1`, with 47.1%.
Regarding `O=C(CCl)Nc1cc(C(F)(F)F)ccc1Cl`, the Inhibition % worked out at 4.72%.
Then `C=CC(=O)N1CCCC(C(=O)Nc2nccs2)C1` (stereo not drawn), with 7.42%; and `CC1(C)OB(c2cccc(-n3cccn3)c2)OC1(C)C`, with 5.69%; and `C=CC(=O)N(C)Cc1cnc(C)s1`, with 10.4%.
On to `O=S(=O)(F)N1CCC(CO)CC1`, for which the Inhibition % worked out at 5.9%.
As to `CC1CC(N2CCOC(C)(C)C2)C(=O)O1` (stereo not drawn), the Inhibition % stood at 8.79%.
Consider `Cc1ccc(F)cc1NC(=O)CN1CCSC1=O`, for which the Inhibition % was found to be 1.55%.
Take `Cc1c(C#N)c(NC(=O)CCl)n(-c2cccc(F)c2)c1C`: the Inhibition % stood at 8%.
In the case of `N#Cc1ncn(Cc2ccccc2Cl)n1`, the Inhibition % came to 3.41%.
As to `CC1CC(Sc2nnc(-c3ccccc3F)o2)C(=O)O1` (stereo not drawn), the Inhibition % stood at 1.67%.
For `O=C(O)C1CCN(C(=O)C=Cc2ccccn2)C1` (stereo not drawn), the Inhibition % worked out at 5.15%.
On to `COc1ccc(F)c(NC(=O)c2cccnc2S)c1`, for which the Inhibition % is listed as 4.52%.
As to `C=CC(=O)Nc1ccc(C(=O)O)cc1`, the Inhibition % is reported as 2.67%.
`O=C(CCl)N1CCc2cc([N+](=O)[O-])ccc21`: the Inhibition % was determined as 5.06%.
Take `O=C(CCl)Nc1ccc(C(=O)O)cc1[N+](=O)[O-]`: the Inhibition % turned out to be 13.3%.
Take `CC1CCCCC1OCCCl` (stereo not drawn): the Inhibition % is given as 7.37%.
In the case of `N#CC(=Cc1cc(Cl)ccc1OCC1CCCO1)C(N)=O` (stereo not drawn), the Inhibition % turned out to be 1.94%.
Then `C=CC(=O)N1CCC(C)C1c1ccccc1` (stereo not drawn), with 6.89%; and `N#Cc1nc(Cc2ccccc2)oc1N`, with 10.7%; and `CN(Cc1ccc2ccccc2c1)C1CCOC1=O` (stereo not drawn), with -0.28%.
Regarding `Cc1ccc(C(N)=O)cc1B1OC(C)(C)C(C)(C)O1`, the Inhibition % came out at 4.41%.
For the molecule `COc1cc(CO)ccc1B1OC(C)(C)C(C)(C)O1`, the Inhibition % is reported as 4.39%.
Consider `Cl.O=C(CCl)N1CCN(c2cnccn2)CC1`, for which the Inhibition % is given as 55.6%.
As to `O=S(=O)(C=Cc1ccc(Cl)cc1)NCc1cccnc1`, the Inhibition % worked out at 2.91%.
Regarding `CN(Cc1ccco1)C(=O)CCl`, the Inhibition % was found to be 53%.
With `CC(C)C1NC(=O)C12CC=CC2` (stereo not drawn), the Inhibition % amounted to 9.96%.
Then `Cn1cc(C=CC(=O)N2CCCS2(=O)=O)c2ccccc21`, with 11.8%; and `Cc1ccc2ncc(C#N)n2c1`, with 3.72%; and `CCSC1CCC(Nc2ccc(C#N)nc2)C1` (stereo not drawn), with 4.36%.
With `C=CC(=O)N1CCN(C(=O)CC)C1` the figure was 9.38%.
On to `C=CC(=O)Nc1ccnc(OC2CCCCC2)c1`, for which the Inhibition % turned out to be 4.74%.
As to `Fc1ccc(C2CO2)cc1F` (stereo not drawn), the Inhibition % stood at 7.25%.
As for `C=CC(=O)N1Cc2cccc(Cl)c2C1`, the Inhibition % is given as 7.04%.
Turning to `COc1ccccc1CSc1nccnc1C#N`, the Inhibition % is on record as 1.26%.
With `COc1ccc(C2=NC(=Cc3cccnc3)C(=O)O2)cc1` the figure was 6.21%; with `CC1CN(S(=O)(=O)C=Cc2ccccc2)CC(C)O1` (stereo not drawn), 8.21%; with `Cl.ClCC1CNCCO1` (stereo not drawn), 3.33%.
Then `N#Cc1cc(Cl)ccn1`, with 52.6%; and `C=CC(=O)NCC1CCCCN1C(=O)C(F)(F)F` (stereo not drawn), with 8.51%.
With `CC(F)(F)C1(C(=O)Nc2cccc(S(=O)(=O)F)c2)CC1`, the Inhibition % amounted to 95.7%.
On to `Cc1cc(C(=O)CCl)c(C)n1C`, for which the Inhibition % came to 72.1%.
With `NC(=O)C1CCN(C(=O)C=Cc2nc3ccccc3o2)C1` (stereo not drawn) the figure was 5.92%.
`CC1(C)OB(c2cccc(OC(F)F)c2)OC1(C)C`: the Inhibition % came to 3.49%.
Turning to `C=CC(=O)NC(C)(C)c1ncc(C)s1`, the Inhibition % is recorded as 8.21%.
Then `O=C(CCl)Nc1ccc(OC(F)F)cc1`, with 82.8%.
For the molecule `Cc1nc2ccccc2nc1S`, the Inhibition % was 2.7%.
On to `O=C(CCl)c1ccc2c(c1)CCN(C(=O)C(F)(F)F)C2`, for which the Inhibition % is recorded as 2.68%.
Then `N#Cc1ccc(C2CO2)cc1` (stereo not drawn), with 6.78%.
Then `C=CC(=O)NC1[C@H]2CCC[C@@H]12` (stereo partly drawn), with 1.39%; and `OC1CCC(CCl)CC1` (stereo not drawn), with 1.08%.
On to `O=C(c1ccc(F)cc1F)N1CCCCC1C1OCCO1` (stereo not drawn), for which the Inhibition % was 6.52%.
On to `O=C(CCl)NNC(=O)c1ccccc1Cl`, for which the Inhibition % was found to be 4.48%.
Then `C=CC(=O)N1CCCC2(CCSC2)C1` (stereo not drawn), with 3.44%; and `Cc1cc(N)nc(SC2CC(C)OC2=O)n1` (stereo not drawn), with 8.49%; and `Fc1cccnc1N1CCCC(C2OCCO2)C1` (stereo not drawn), with 10.7%.
For the molecule `C=CC(=O)N1CCc2c(cccc2C(F)(F)F)C1`, the Inhibition % was -3.37%.
As for `O=C1C2CCCN2C(=O)N1CCS(=O)(=O)F` (stereo not drawn), the Inhibition % is recorded as 24.6%.
`Cc1ccc2nc(NC(=O)CN3CCSC3=O)sc2c1`: the Inhibition % is 5.37%.
With `C=CC(=O)NCc1nnc2n1CCCC2C(F)(F)F` (stereo not drawn), the Inhibition % was 8.99%.
For `CC(C)(C)OC(=O)N1CCOc2ccc(B3OC(C)(C)C(C)(C)O3)cc2C1`, the Inhibition % is given as -1.61%.
`N#Cc1cc(F)ccn1`: the Inhibition % came out at 5.03%.
In the case of `C=CC(=O)Nc1ccc(=O)n(C)c1`, the Inhibition % was 54.1%.
Take `Cc1nn(C)c(Cl)c1C=CC(=O)N1CCNC(=O)C1`: the Inhibition % is reported as 7.91%.
Regarding `C=CC(=O)NC1CCCN(c2ncccn2)C1` (stereo not drawn), the Inhibition % was 4.88%.
As to `C=CC(=O)NCc1ccc2c(n1)CCCC2`, the Inhibition % stood at 6.7%.
For `Cc1cccc(C#N)c1B1OC(C)(C)C(C)(C)O1`, the Inhibition % is on record as -0.114%.
On to `O=C(CCl)N1CCCC1=O`, for which the Inhibition % was determined as 79.2%.
Then `Cl.NCc1cc(=O)[nH]c(S)n1`, with 27.5%; and `CSCC(C)C(=O)N1CCN(c2ccc(C#N)nc2)CC1` (stereo not drawn), with 8.33%.
In the case of `Cn1cc(NS(=O)(=O)c2ccc(S(=O)(=O)F)cc2)cn1`, the Inhibition % was 33%.
